According to the supplement of paper PMC12423691:
Some of the results follow. Binding of human transcription factors and regulators to the viral nucleoprotein by AlphaScreen, crude cell-free proteins, amounts not normalised, one pass. Fold of the Venus control; higher = more signal. No active / inactive call. Single-pass screen; sequences are the whole Swiss-Prot entries looked up by name.

B1: CHUK, O15111 (protein)
chain: MERPPGLRPGAGGPWEMRERLGTGGFGNVCLYQHRELDLKIAIKSCRLELSTKNRERWCHEIQIMKKLNHANVVKACDVPEELNILIHDVPLLAMEYCSGGDLRKLLNKPENCCGLKESQILSLLSDIGSGIRYLHENKIIHRDLKPENIVLQDVGGKIIHKIIDLGYAKDVDQGSLCTSFVGTLQYLAPELFENKPYTATVDYWSFGTMVFECIAGYRPFLHHLQPFTWHEKIKKKDPKCIFACEEMSGEVRFSSHLPQPNSLCSLVVEPMENWLQLMLNWDPQQRGGPVDLTLKQPRCFVLMDHILNLKIVHILNMTSAKIISFLLPPDESLHSLQSRIERETGINTGSQELLSETGISLDPRKPASQCVLDGVRGCDSYMVYLFDKSKTVYEGPFASRSLSDCVNYIVQDSKIQLPIIQLRKVWAEAVHYVSGLKEDYSRLFQGQRAAMLSLLRYNANLTKMKNTLISASQQLKAKLEFFHKSIQLDLERYSEQMTYGISSEKMLKAWKEMEEKAIHYAEVGVIGYLEDQIMSLHAEIMELQKSPYGRRQGDLMESLEQRAIDLYKQLKHRPSDHSYSDSTEMVKIIVHTVQSQDRVLKELFGHLSKLLGCKQKIIDLLPKVEVALSNIKEADNTVMFMQGKRQKEIWHLLKIACTQSSARSLVGSSLEGAVTPQTSAWLPPTSAEHDHSLSCVVTPQDGETSAQMIEENLNCLGHLSTIIHEANEEQGNSMMNLDWSWLTE
B2: ZFPM1, Q8IX07 (protein)
chain: MSRRKQSNPRQIKRSLGDMEAREEVQLVGASHMEQKATAPEAPSPPSADVNSPPPLPPPTSPGGPKELEGQEPEPRPTEEEPGSPWSGPDELEPVVQDGQRRIRARLSLATGLSWGPFHGSVQTRASSPRQAEPSPALTLLLVDEACWLRTLPQALTEAEANTEIHRKDDALWCRVTKPVPAGGLLSVLLTAEPHSTPGHPVKKEPAEPTCPAPAHDLQLLPQQAGMASILATAVINKDVFPCKDCGIWYRSERNLQAHLLYYCASRQGTGSPAAAATDEKPKETYPNERVCPFPQCRKSCPSASSLEIHMRSHSGERPFVCLICLSAFTTKANCERHLKVHTDTLSGVCHSCGFISTTRDILYSHLVTNHMVCQPGSKGEIYSPGAGHPATKLPPDSLGSFQQQHTALQGPLASADLGLAPTPSPGLDRKALAEATNGEARAEPLAQNGGSSEPPAAPRSIKVEAVEEPEAAPILGPGEPGPQAPSRTPSPRSPAPARVKAELSSPTPGSSPVPGELGLAGALFLPQYVFGPDAAPPASEILAKMSELVHSRLQQGAGAGAGGAQTGLFPGAPKGATCFECEITFSNVNNYYVHKRLYCSGRRAPEDAPAARRPKAPPGPARAPPGQPAEPDAPRSSPGPGAREEGAGGAATPEDGAGGRGSEGSQSPGSSVDDAEDDPSRTLCEACNIRFSRHETYTVHKRYYCASRHDPPPRRPAAPPGPPGPAAPPAPSPAAPVRTRRRRKLYELHAAGAPPPPPPGHAPAPESPRPGSGSGSGPGLAPARSPGPAADGPIDLSKKPRRPLPGAPAPALADYHECTACRVSFHSLEAYLAHKKYSCPAAPPPGALGLPAAACPYCPPNGPVRGDLLEHFRLAHGLLLGAPLAGPGVEARTPADRGPSPAPAPAASPQPGSRGPRDGLGPEPQEPPPGPPPSPAAAPEAVPPPPAPPSYSDKGVQTPSKGTPAPLPNGNHRYCRLCNIKFSSLSTFIAHKKYYCSSHAAEHVK
B3: ZNF584, Q8IVC4 (protein)
chain: MAGEAEAQLDPSLQGLVMFEDVTVYFSREEWGLLNVTQKGLYRDVMLENFALVSSLGLAPSRSPVFTQLEDDEQSWVPSWVDVTPVSRAEARRGFGLDGLCRVEDERAHPEHLKSYRVIQHQDTHSEGKPRRHTEHGAAFPPGSSCGQQQEVHVAEKLFKCSDCGKVFLKAFALLDHLITHSEERPFRCPTGRSAFKKSAHINPRKIHTGETAHVCNECGKAFSYPSKLRKHQKVHTGIKPFKCSDCGKTFNRKDALVLHQRIHTGERPYECSKCGKTFSVLSTLIRHRKVHIGERPYECTECGKFFKYNNSFILHQRVHTGERPFECKQCGKGYVTRSGLYQHWKVHTGERPYECSLCGKTFTTRSYRNRHQQFHTEERSYECTECGKAFKHSSTLLQHKKVHTPERRQEDRAHGKVVSC
B4: GATAD1, Q8WUU5 (protein)
chain: MPLGLKPTCSVCKTTSSSMWKKGAQGEILCHHCTGRGGAGSGGAGSGAAGGTGGSGGGGFGAATFASTSATPPQSNGGGGGKQSKQEIHRRSARLRNTKYKSAPAAEKKVSTKGKGRRHIFKLKNPIKAPESVSTIITAESIFYKGVYYQIGDVVSVIDEQDGKPYYAQIRGFIQDQYCEKSAALTWLIPTLSSPRDQFDPASYIIGPEEDLPRKMEYLEFVCHAPSEYFKSRSSPFPTVPTRPEKGYIWTHVGPTPAITIKESVANHL
B5: HDAC4, P56524 (protein)
chain: MSSQSHPDGLSGRDQPVELLNPARVNHMPSTVDVATALPLQVAPSAVPMDLRLDHQFSLPVAEPALREQQLQQELLALKQKQQIQRQILIAEFQRQHEQLSRQHEAQLHEHIKQQQEMLAMKHQQELLEHQRKLERHRQEQELEKQHREQKLQQLKNKEKGKESAVASTEVKMKLQEFVLNKKKALAHRNLNHCISSDPRYWYGKTQHSSLDQSSPPQSGVSTSYNHPVLGMYDAKDDFPLRKTASEPNLKLRSRLKQKVAERRSSPLLRRKDGPVVTALKKRPLDVTDSACSSAPGSGPSSPNNSSGSVSAENGIAPAVPSIPAETSLAHRLVAREGSAAPLPLYTSPSLPNITLGLPATGPSAGTAGQQDAERLTLPALQQRLSLFPGTHLTPYLSTSPLERDGGAAHSPLLQHMVLLEQPPAQAPLVTGLGALPLHAQSLVGADRVSPSIHKLRQHRPLGRTQSAPLPQNAQALQHLVIQQQHQQFLEKHKQQFQQQQLQMNKIIPKPSEPARQPESHPEETEEELREHQALLDEPYLDRLPGQKEAHAQAGVQVKQEPIESDEEEAEPPREVEPGQRQPSEQELLFRQQALLLEQQRIHQLRNYQASMEAAGIPVSFGGHRPLSRAQSSPASATFPVSVQEPPTKPRFTTGLVYDTLMLKHQCTCGSSSSHPEHAGRIQSIWSRLQETGLRGKCECIRGRKATLEELQTVHSEAHTLLYGTNPLNRQKLDSKKLLGSLASVFVRLPCGGVGVDSDTIWNEVHSAGAARLAVGCVVELVFKVATGELKNGFAVVRPPGHHAEESTPMGFCYFNSVAVAAKLLQQRLSVSKILIVDWDVHHGNGTQQAFYSDPSVLYMSLHRYDDGNFFPGSGAPDEVGTGPGVGFNVNMAFTGGLDPPMGDAEYLAAFRTVVMPIASEFAPDVVLVSSGFDAVEGHPTPLGGYNLSARCFGYLTKQLMGLAGGRIVLALEGGHDLTAICDASEACVSALLGNELDPLPEKVLQQRPNANAVRSMEKVMEIHSKYWRCLQRTTSTAGRSLIEAQTCENEEAETVTAMASLSVGVKPAEKRPDEEPMEEEPPL
B6: NFKB1, P19838 (protein)
chain: MAEDDPYLGRPEQMFHLDPSLTHTIFNPEVFQPQMALPTDGPYLQILEQPKQRGFRFRYVCEGPSHGGLPGASSEKNKKSYPQVKICNYVGPAKVIVQLVTNGKNIHLHAHSLVGKHCEDGICTVTAGPKDMVVGFANLGILHVTKKKVFETLEARMTEACIRGYNPGLLVHPDLAYLQAEGGGDRQLGDREKELIRQAALQQTKEMDLSVVRLMFTAFLPDSTGSFTRRLEPVVSDAIYDSKAPNASNLKIVRMDRTAGCVTGGEEIYLLCDKVQKDDIQIRFYEEEENGGVWEGFGDFSPTDVHRQFAIVFKTPKYKDINITKPASVFVQLRRKSDLETSEPKPFLYYPEIKDKEEVQRKRQKLMPNFSDSFGGGSGAGAGGGGMFGSGGGGGGTGSTGPGYSFPHYGFPTYGGITFHPGTTKSNAGMKHGTMDTESKKDPEGCDKSDDKNTVNLFGKVIETTEQDQEPSEATVGNGEVTLTYATGTKEESAGVQDNLFLEKAMQLAKRHANALFDYAVTGDVKMLLAVQRHLTAVQDENGDSVLHLAIIHLHSQLVRDLLEVTSGLISDDIINMRNDLYQTPLHLAVITKQEDVVEDLLRAGADLSLLDRLGNSVLHLAAKEGHDKVLSILLKHKKAALLLDHPNGDGLNAIHLAMMSNSLPCLLLLVAAGADVNAQEQKSGRTALHLAVEHDNISLAGCLLLEGDAHVDSTTYDGTTPLHIAAGRGSTRLAALLKAAGADPLVENFEPLYDLDDSWENAGEDEGVVPGTTPLDMATSWQVFDILNGKPYEPEFTSDDLLAQGDMKQLAEDVKLQLYKLLEIPDPDKNWATLAQKLGLGILNNAFRLSPAPSKTLMDNYEVSGGTVRELVEALRQMGYTEAIEVIQAASSPVKTTSQAHSLPLSPASTRQQIDELRDSDSVCDSGVETSFRKLSFTESLTSGASLLTLNKMPHDYGQEGPLEGKI
B7: CITED1, Q99966 (protein)
chain: MPTTSRPALDVKGGTSPAKEDANQEMSSVAYSNLAVKDRKAVAILHYPGVASNGTKASGAPTSSSGSPIGSPTTTPPTKPPSFNLHPAPHLLASMHLQKLNSQYQGMAAATPGQPGEAGPLQNWDFGAQAGGAESLSPSAGAQSPAIIDSDPVDEEVLMSLVVELGLDRANELPELWLGQNEFDFTADFPSSC
B8: TBX10, O75333 (protein)
chain: MAAFLSAGLGILAPSETYPLPTTSSGWEPRLGSPFPSGPCTSSTGAQAVAEPTGQGPKNPRVSRVTVQLEMKPLWEEFNQLGTEMIVTKAGRRMFPPFQVKILGMDSLADYALLMDFIPLDDKRYRYAFHSSAWLVAGKADPATPGRVHFHPDSPAKGAQWMRQIVSFDKLKLTNNLLDDNGHIILNSMHRYQPRFHVVFVDPRKDSERYAQENFKSFIFTETQFTAVTAYQNHRITQLKIASNPFAKGFRESDLDSWPVAPRPLLSVPARSHSSLSPCVLKGATDREKDPNKASASTSKTPAWLHHQLLPPPEVLLAPATYRPVTYQSLYSGAPSHLGIPRTRPAPYPLPNIRADRDQGGLPLPAGLGLLSPTVVCLGPGQDSQ

Each binder was assayed against nucleoprotein N of Crimean-Congo hemorrhagic fever virus (assay: AlphaScreen luminescence signal relative to Venus negative control (fold); higher = stronger binding to CCHFV N).
Method: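 AlphaScreen binding of cell-free made, FLAG-GST-tagged human transcription factors and regulators (crude translation products) to biotinylated N protein; signal as fold of the FLAG-GST-Venus control. One pass.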

Row | Binder | AlphaScreen luminescence signal
1 | B1 | 2.6
2 | B2 | 2.51
3 | B3 | 1.72
4 | B4 | 3.77
5 | B5 | 3.02
6 | B6 | 1.35
7 | B7 | 1.35
8 | B8 | 2.37
